The other results are listed elsewhere or left out.

The assay concerns the target T1, MBP-FoxP1dN (Mus musculus, UniProt P58462 326-579).
T1 sequence: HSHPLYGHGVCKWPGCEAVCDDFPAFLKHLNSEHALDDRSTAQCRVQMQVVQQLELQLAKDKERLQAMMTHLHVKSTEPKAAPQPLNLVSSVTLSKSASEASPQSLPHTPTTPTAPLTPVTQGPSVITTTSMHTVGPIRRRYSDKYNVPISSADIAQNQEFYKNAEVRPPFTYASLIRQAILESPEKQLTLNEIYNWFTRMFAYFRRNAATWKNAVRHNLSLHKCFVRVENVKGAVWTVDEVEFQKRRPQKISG
Briefly: PD-seq (MBP pull-down with sequencing); 20 mM Tris-HCl pH 7.5, 100 mM NaCl, 1.5 mM MgCl2, 0.4 uM protein, 0.1 uM dsDNA library, 30 min, room temperature, amylose pull-down; high values mean tight binding. The following applies: protein: recombinant; tags: His6-MBP; chain copies: 2; dsDNA, one strand shown. The method, boiled down: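 The N-terminus-lacking fragment of mouse FoxP3 or FoxP1 carried a His6-MBP tag and was expressed in E. coli. At 0.4 µM it was incubated with 0.1 µM Klenow-filled degenerate double-stranded DNA library for 30 min at room temperature in Tris pH 7.5 buffer with NaCl and MgCl2, and complexes were caught on amylose resin, washed three times, released with proteinase K, PCR-barcoded and Illumina-sequenced. Binding is reads-per-million enrichment of pull-down over input with replicates pooled.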
On to “GATGATTGTTCTCCCAGCTGATGAATTAGTCAGTTCGAGTAAACAAATTTTCCTAATCTTTCTGTTCAAGCGCCATCTAC”, for which the binding signal was 0.921 RPM ratio (pull-down/input). Consider “GATGATTGTTCTCCCAGCTGATGAATTTGCCATTTCGAGTAAACAAATTTTCCTAATCTTTCTGTTCAAGCGCCATCTAC”, for which the binding signal is 1.13 RPM ratio (pull-down/input).

With “GATGATTGTTCTCCCAGCTGATGAATTAGGCTAGTCGAGTAAACAAATTTTCCTAATCTTTCTGTTCAAGCGCCATCTAC”, the binding signal is 0.833 RPM ratio (pull-down/input). On to “GATGATTGTTCTCCCAGCTGATGAATTTGGAGGGTCGAGTAAACAAATTTTCCTAATCTTTCTGTTCAAGCGCCATCTAC”, for which the binding signal is 0.772 RPM ratio (pull-down/input). Then “GATGATTGTTCTCCCAGCTGATGAATTGCGACGCTCGAGTAAACAAATTTTCCTAATCTTTCTGTTCAAGCGCCATCTAC”, with 1.04 RPM ratio (pull-down/input); and “GATGATTGTTCTCCCAGCTGATGAATTTTCAAAATCGAGTAAACAAATTTTCCTAATCTTTCTGTTCAAGCGCCATCTAC”, with 1.19 RPM ratio (pull-down/input); and “GATGATTGTTCTCCCAGCTGATGAATTACGCACATCGAGTAAACAAATTTTCCTAATCTTTCTGTTCAAGCGCCATCTAC”, with 1.13 RPM ratio (pull-down/input).

Consider “GATGATTGTTCTCCCAGCTGATGAATTGGTGATATCGAGTAAACAAATTTTCCTAATCTTTCTGTTCAAGCGCCATCTAC”, for which the binding signal is 1.18 RPM ratio (pull-down/input). With “GATGATTGTTCTCCCAGCTGATGAATTGGTTTAGTCGAGTAAACAAATTTTCCTAATCTTTCTGTTCAAGCGCCATCTAC”, the binding signal is 0.972 RPM ratio (pull-down/input). For the sequence “GATGATTGTTCTCCCAGCTGATGAATTCGTGGGTTCGAGTAAACAAATTTTCCTAATCTTTCTGTTCAAGCGCCATCTAC”, the binding signal is 0.815 RPM ratio (pull-down/input).

As for “GATGATTGTTCTCCCAGCTGATGAATTATTGCAGTCGAGTAAACAAATTTTCCTAATCTTTCTGTTCAAGCGCCATCTAC”, the binding signal is 1.17 RPM ratio (pull-down/input). For “GATGATTGTTCTCCCAGCTGATGAATTCCGGTCATCGAGTAAACAAATTTTCCTAATCTTTCTGTTCAAGCGCCATCTAC”, the binding signal was 0.836 RPM ratio (pull-down/input). For the sequence “GATGATTGTTCTCCCAGCTGATGAATTAGTTTTATCGAGTAAACAAATTTTCCTAATCTTTCTGTTCAAGCGCCATCTAC”, the binding signal was 1.02 RPM ratio (pull-down/input). With “GATGATTGTTCTCCCAGCTGATGAATTTTCGTCCTCGAGTAAACAAATTTTCCTAATCTTTCTGTTCAAGCGCCATCTAC” the figure was 0.907 RPM ratio (pull-down/input); with “GATGATTGTTCTCCCAGCTGATGAATTCGTTCGGTCGAGTAAACAAATTTTCCTAATCTTTCTGTTCAAGCGCCATCTAC”, 0.762 RPM ratio (pull-down/input); with “GATGATTGTTCTCCCAGCTGATGAATTAGAGTTATCGAGTAAACAAATTTTCCTAATCTTTCTGTTCAAGCGCCATCTAC”, 0.959 RPM ratio (pull-down/input).

For “GATGATTGTTCTCCCAGCTGATGAATTAATGAAATCGAGTAAACAAATTTTCCTAATCTTTCTGTTCAAGCGCCATCTAC”, the binding signal was 0.987 RPM ratio (pull-down/input).

On to “GATGATTGTTCTCCCAGCTGATGAATTATGGTCTTCGAGTAAACAAATTTTCCTAATCTTTCTGTTCAAGCGCCATCTAC”, for which the binding signal was 1.03 RPM ratio (pull-down/input). For “GATGATTGTTCTCCCAGCTGATGAATTACTCCACTCGAGTAAACAAATTTTCCTAATCTTTCTGTTCAAGCGCCATCTAC”, the binding signal was 0.986 RPM ratio (pull-down/input). Consider “GATGATTGTTCTCCCAGCTGATGAATTAACAGCGTCGAGTAAACAAATTTTCCTAATCTTTCTGTTCAAGCGCCATCTAC”, for which the binding signal was 1 RPM ratio (pull-down/input). For “GATGATTGTTCTCCCAGCTGATGAATTCATAATATCGAGTAAACAAATTTTCCTAATCTTTCTGTTCAAGCGCCATCTAC”, the binding signal is 1.38 RPM ratio (pull-down/input). “GATGATTGTTCTCCCAGCTGATGAATTATATCTATCGAGTAAACAAATTTTCCTAATCTTTCTGTTCAAGCGCCATCTAC”: the binding signal is 0.985 RPM ratio (pull-down/input). Take “GATGATTGTTCTCCCAGCTGATGAATTGACGGACTCGAGTAAACAAATTTTCCTAATCTTTCTGTTCAAGCGCCATCTAC”: the binding signal is 0.907 RPM ratio (pull-down/input). “GATGATTGTTCTCCCAGCTGATGAATTGGTAAACTCGAGTAAACAAATTTTCCTAATCTTTCTGTTCAAGCGCCATCTAC”: the binding signal is 1.46 RPM ratio (pull-down/input). For “GATGATTGTTCTCCCAGCTGATGAATTCAGGGAATCGAGTAAACAAATTTTCCTAATCTTTCTGTTCAAGCGCCATCTAC”, the binding signal was 0.936 RPM ratio (pull-down/input).

In the case of “GATGATTGTTCTCCCAGCTGATGAATTCGGACGCTCGAGTAAACAAATTTTCCTAATCTTTCTGTTCAAGCGCCATCTAC”, the binding signal is 0.864 RPM ratio (pull-down/input). For “GATGATTGTTCTCCCAGCTGATGAATTCGCTTCGTCGAGTAAACAAATTTTCCTAATCTTTCTGTTCAAGCGCCATCTAC”, the binding signal was 0.818 RPM ratio (pull-down/input). Regarding “GATGATTGTTCTCCCAGCTGATGAATTGGCGAGCTCGAGTAAACAAATTTTCCTAATCTTTCTGTTCAAGCGCCATCTAC”, the binding signal is 0.738 RPM ratio (pull-down/input). Consider “GATGATTGTTCTCCCAGCTGATGAATTCGAGTCCTCGAGTAAACAAATTTTCCTAATCTTTCTGTTCAAGCGCCATCTAC”, for which the binding signal is 0.798 RPM ratio (pull-down/input). For “GATGATTGTTCTCCCAGCTGATGAATTTCTTTATTCGAGTAAACAAATTTTCCTAATCTTTCTGTTCAAGCGCCATCTAC”, the binding signal is 0.979 RPM ratio (pull-down/input).

As to “GATGATTGTTCTCCCAGCTGATGAATTCTCTCACTCGAGTAAACAAATTTTCCTAATCTTTCTGTTCAAGCGCCATCTAC”, the binding signal was 0.851 RPM ratio (pull-down/input). For the sequence “GATGATTGTTCTCCCAGCTGATGAATTATATGCATCGAGTAAACAAATTTTCCTAATCTTTCTGTTCAAGCGCCATCTAC”, the binding signal was 1.45 RPM ratio (pull-down/input).
